The whole screen tested about 410,000 compounds, of which about 530 (0.13%) were called active. The inconclusive results got no clear call from the source; some entries with a clear call stand among them for comparison. Calls follow the shape of the dose curve; as a rule, active = well fitted inhibition curve with a large enough effect; inconclusive = small, poorly fitted or top-dose-only effect, or another doubt; inactive = no such curve, though single readings can be large or run the other way. Potencies beside an inconclusive call are fits to weak or partial responses and may not hold up.
Test: qHTS of GLP-1 Receptor Inverse Agonists: Cytotox Screen
Details: HEK293 cAMP-luciferase reporter cells, luminescence, 24 h; activity change, negative = inhibition: at 38.3 µM (top of the series) unless noted
Outline: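 Compound-treated cells are incubated 24 hr at 37 deg C under 5% CO2 after a 12 hour attachment period, then luciferase detection reagent is added and luminescence is measured following 12 min at room temperature; lowered signal indicates toxicity.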
% is scaled to controls: 0 for no effect and ±100 for the full control effect; potency is read from the fitted curve at half-maximal effect.

Row | SMILES | Potency | activity change, negative = inhibition
1 | CCOC(=O)C1(CCc2ccccc2)CCN(Cc2ccccn2)CC1 | inconclusive: 22.4 µM [inhibitor, single point] | –
2 | CCOc1cccc(C2C(C(=O)c3ccc(C)o3)=C(O)C(=O)N2c2nnc(C)s2)c1 (stereo unspecified) | – | inactive: -3.56%
3 | CC1CCN(c2ccc(-c3ccc(NC(=O)c4ccco4)cc3)nn2)CC1 | inconclusive: 28.2 µM [inhibitor, single point] | –
4 | O=C(CCl)N1N=C(c2ccco2)CC1c1ccco1 (stereo unspecified) | inconclusive: 11.2 µM [inhibitor, partial curve, poor fit] | –
5 | CCN(CC)c1ccc(NC(=O)c2cccc(C)c2OC)c(C)c1 | – | inactive: 2.16%
6 | COc1ccc(CC(N)c2csc(NC(=O)c3cccc(OC(F)(F)F)c3)n2)cc1 (stereo unspecified) | inconclusive: 20 µM [inhibitor, single point] | –
7 | COc1cccc(NC(=O)Cn2c(=O)n(-c3ccc(C)cc3)c(=O)c3ccc(C(=O)NCc4ccco4)cc32)c1 | inconclusive: 12.6 µM [inhibitor, partial curve, poor fit] | –
8 | CC(=O)N1/C(=C/c2ccc(N(C)C)cc2)C(=O)c2ccccc21 | inconclusive: 28.2 µM [inhibitor, single point] | –
9 | COc1ccc(CCNC(=O)C(=O)NCC(c2ccco2)S(=O)(=O)c2ccc(F)cc2)cc1 (stereo unspecified) | – | inactive: -5.92%
10 | COCC1CCN(Cc2c(C(=O)N3CCc4ccccc4C3)nc3ccc(Cl)cn23)C1 (stereo unspecified) | – | inactive: 11.3%
11 | COc1ccc(CNC(=O)c2ccc(CS(=O)(=O)c3ccccc3OC)o2)cc1 | – | inactive: -2.71%
12 | CC(=O)n1nc(-c2ccncc2)nc1SCC(=O)Nc1cccc(Cl)c1 | – | inactive: 0.835%
13 | CC(C)CN1CN(Cc2ccccc2)CNC1=S | inconclusive: 28.2 µM [inhibitor, single point] | –
14 | CCCc1cc(NCCCn2ccnc2)n2nc(C)c(-c3ccccc3)c2n1 | inconclusive: 28.2 µM [inhibitor, single point] | –
15 | CCN(C(=O)C(C)N1C(=O)/C(=C/c2cccs2)SC1=S)C1CCS(=O)(=O)C1 (stereo unspecified) | inconclusive: 31.6 µM [inhibitor, single point] | –
16 | O=C1NC(Cc2ccc(O)cc2)c2nc3cc(F)ccc3c(=O)n2-c2cc3ccccc3cc21 (stereo unspecified) | inconclusive: 5.62 µM [inhibitor, partial curve] | –
17 | CC(C)C(=O)Nc1nnc(COc2ccc(Cl)cc2)s1 | – | inactive: -8.57%
18 | Cc1c2cnn(CC(=O)NCCc3ccccc3)c(=O)c2c(C)n1Cc1ccccc1 | – | inactive: -8.49%
19 | COc1ccc(C(=O)/C=C/c2ccc(OC)c(O)c2)c(F)c1 | inconclusive: 28.2 µM [inhibitor, single point] | –
20 | CC1CCN(C(=S)NC(=O)c2ccco2)CC1 | inconclusive: 10 µM [inhibitor, partial curve] | –
21 | Fc1ccc(C2CCNCC2COc2ccc3c(c2)OCO3)cc1 (stereo unspecified) | inconclusive: 28.2 µM [inhibitor, single point] | –
22 | Cc1cc(Nc2cccc(Cl)c2)nc2ccc(NC(=O)Cc3cccc(C(F)(F)F)c3)cc12 | inconclusive: 8.91 µM [inhibitor, partial curve, poor fit] | –

Row | SMILES | Potency | activity change, negative = inhibition
23 | CCN(CC)S(=O)(=O)c1ccc2oc(C(=O)N(C)Cc3ccccc3)c(C)c2c1 | – | inactive: -4.9%
24 | Cc1noc(C)c1NC(=O)Nc1cccc2c1O[C@H](CN(C)C(=O)Nc1ccc(C(F)(F)F)cc1)[C@@H](C)CN([C@H](C)CO)C2=O | inconclusive: 2 µM [inhibitor, full curve, poor fit] | –
25 | CCn1c(=O)c(C(=O)NNC(=O)c2ccccc2Cl)c(O)c2ccccc21 | – | inactive: -1.74%
26 | CCC(=O)Nc1cccc(-c2csc(-c3ccccc3)n2)c1 | – | inactive: -15.6%
27 | Cc1ccc(S(=O)(=O)/N=C2\C=C(Nc3cccc(C(=O)O)c3)C(=O)c3ccccc32)c(C)c1 | inconclusive: 10 µM [inhibitor, partial curve] | –
28 | COc1cc2nc(NC(=O)c3ccc(F)cc3Cl)sc(=O)c2cc1OC | inconclusive: 0.891 µM [inhibitor, full curve, poor fit] | –
29 | CCCCNc1nc(Oc2ccc(=O)n(C)n2)nc(N(C)C)n1 | – | inactive: 6.94%
30 | CCCCSCCCNC(=S)Nc1ccccc1C | inconclusive: 14.1 µM [inhibitor, single point] | –
31 | O=C(O)c1ccccc1C(=O)NNc1ccc(Cl)cc1Cl | inconclusive: 4.47 µM [inhibitor, partial curve, poor fit] | –
32 | CCCn1c(=S)[nH]c2ccccc2c1=O | inconclusive: 10 µM [inhibitor, partial curve] | –
33 | COc1ccc(N=C2C(=Nc3ccc(OC)cc3)N(c3ccc(OC)cc3)C(=S)N2C)cc1 | inconclusive: 28.2 µM [inhibitor, single point] | –
34 | O=C(CCN1C(=O)c2ccccc2C1=O)Nc1ccc(-c2cn3ccsc3n2)cc1 | inconclusive: 10 µM [inhibitor, single point] | –
35 | CCOC(=O)C1(CCc2ccccc2)CCN(Cc2nccn2CC)CC1 | active: 8.91 µM | –
36 | O=[N+]([O-])c1cc(Cl)ccc1NCCNS(=O)(=O)c1ccccc1 | inconclusive: 28.2 µM [inhibitor, single point] | –
37 | COc1cc(NC(=O)CSc2nncn2C)c(C)cc1[N+](=O)[O-] | inconclusive: 10 µM [inhibitor, single point] | –
38 | O=C(CSC(=S)N1CCOCC1)c1cc2ccccc2oc1=O | inconclusive: 28.2 µM [inhibitor, single point] | –
39 | CC(NC(=O)OC(C)(C)C)C(=O)NC(CCC(=O)OCc1ccccc1)C(N)=O (stereo unspecified) | – | inactive: 5.83% [at 7.66 µM]
40 | CCCn1c(NCc2ccccc2NS(=O)(=O)c2ccc(C)cc2)nc2ccccc21 | inconclusive: 6.31 µM [inhibitor, partial curve, poor fit] | –
41 | COc1ccc(C/C(N)=N/OC(=O)c2cccs2)cc1 | inconclusive: 4.47 µM [inhibitor, full curve, poor fit] | –
42 | CNC(=O)NC(=S)NC(=O)c1cccc(Cl)c1 | – | inactive: -5.31%
43 | COc1cccc(C=NNC(=O)c2ccncc2)c1O | inconclusive: 1.12 µM [inhibitor, full curve, poor fit] | –
44 | CCOc1cc(/C=C(\C#N)c2nc(-c3cccs3)c(NC(C)=O)s2)ccc1O | inconclusive: 14.1 µM [inhibitor, single point] | –

Row | SMILES | Potency | activity change, negative = inhibition
45 | C=C(C)COc1ccc(-c2[nH]ncc2-c2ccc(Br)cc2)c(O)c1 | inconclusive: 22.4 µM [inhibitor, single point] | –
46 | O=C(CNC(=O)c1ccccc1Br)N/N=C/c1cccs1 | – | inactive: 0.202%
47 | CCCCc1nc(SCc2ccc([N+](=O)[O-])cc2)n[nH]1 | inconclusive: 0.501 µM [inhibitor, full curve, poor fit] | –
48 | CC(C)c1ccc(-c2csc3ncnc(N4CCN(C)CC4)c23)cc1 | inconclusive: 28.2 µM [inhibitor, single point] | –
49 | O=C(c1ccc(-c2ccccc2)c(F)c1)C1CCCN(CCCn2cccn2)C1 (stereo unspecified) | inconclusive: 28.2 µM [inhibitor, single point] | –
50 | Oc1c(I)cc(Cl)c2cccnc12 | inconclusive: 14.1 µM [inhibitor, single point] | –
51 | NC(=S)NN=C1c2ccccc2-c2c(F)c(F)c(F)c(F)c21 | active: 11.2 µM | –
52 | CC(=O)Nc1ccc(-c2ccnc3c2CC(C)(C(=O)Nc2cccc(C(F)(F)F)c2)O3)cc1 (stereo unspecified) | inconclusive: 20 µM [inhibitor, partial curve, poor fit] | –
53 | Cc1ccc(CNC(=O)c2ccc3c(c2)N(Cc2ccccc2F)C(=O)c2ccccc2S3(=O)=O)cc1 | – | inactive: 2.33%
54 | CC(C)CCNC(=S)Nc1ccccn1 | inconclusive: 10 µM [inhibitor, partial curve, poor fit] | –
55 | O=S(=O)(c1ccc2ccccc2c1)n1nc(-c2ccco2)nc1NCc1cccc(Cl)c1 | – | inactive: 0.223%
56 | COc1cc(C(=O)OCCCN2CCOCC2)cc(OC)c1OC | inconclusive: 1 µM [inhibitor, full curve, poor fit] | –
57 | CSc1ccccc1NC(=O)Cn1ccsc1=N | inconclusive: 7.08 µM [inhibitor, partial curve] | –
58 | Cc1cc(C)n(-c2nnc3n2N=C(c2c[nH]c4ccccc24)CS3)n1 | inconclusive: 11.2 µM [inhibitor, partial curve] | –
59 | Cc1ccc2sc(N(CCCN(C)C)C(=O)c3ccc(S(=O)(=O)N4CCCCCC4)cc3)nc2c1C | inconclusive: 28.2 µM [inhibitor, single point] | –
60 | Cc1cccc(N(C(=O)c2snc(C(N)=O)c2N)C(C(=O)NCc2ccccc2)c2ccncc2)c1 (stereo unspecified) | inconclusive: 11.2 µM [inhibitor, single point] | –
61 | COc1ccc2oc(C(=O)Nc3ccc(S(=O)(=O)N(C)C4CCN(C)CC4)cc3)c(C)c2c1 | inconclusive: 28.2 µM [inhibitor, single point] | –
62 | Cn1c(-c2ccc(F)cc2)cnc1NCc1cccc(F)c1 | inconclusive: 3.16 µM [inhibitor, partial curve, poor fit] | –
63 | CC(NC(=O)CCCCCN1C(=O)c2ccccc2C1=O)c1ccc2c(c1)CCCC2 (stereo unspecified) | inconclusive: 10 µM [inhibitor, partial curve, poor fit] | –
64 | Cc1cccc(COC[C@H](Cc2ccccc2)N2CCN(C(=O)c3cc(Cl)cc(Cl)c3)CCC2=O)c1 | inconclusive: 7.94 µM [inhibitor, partial curve] | –
65 | COc1ccc(NC(=O)CSc2c3c(nc4ccccc24)CCCC3)c(OC)c1 | inconclusive: 22.4 µM [inhibitor, single point] | –
66 | O=C1/C(=C/c2cccs2)SC(=S)N1NS(=O)(=O)c1ccccc1 | inconclusive: 28.2 µM [inhibitor, single point] | –

Source: PubChem BioAssay AID624418 (National Center for Advancing Translational Sciences (NCATS), 2012)
